Data from patent publication US9872922B2, “Anti-EFNA4 antibody-drug conjugates” (PFIZER, INC., priority 2013, dated 2018).

Legend:
MEC1 = test: Flow cytometry antibody binding (MCF), MEC1; settings: 10 μg/ml antibody; MEC1, B-CLL
Protocol: Binding of humanized anti-EFNA4 antibodies huE22 and huE47 was assessed on EFNA4 expressing cells by flow cytometry. Adherent cells were dissociated using TrpLE Express (GIBCO cat #12604-021), neutralized with cell culture media and counted. Cells were plated into a U-bottom 96-well plate (BD Falcon cat #353077) with 5×10e5 cells/100 μL media/well. The plate was centrifuged at 300×g, 5 minutes, 4° C. to pellet cells and the supernatant was discarded. All reagents were kept on ice for the following steps. Each pellet was resuspended in 100 μL primary humanized anti-EFNA4 antibody (huE22 or huE47) or negative control antibody at 10 μg/mL in 3% BSA in PBS. The plate was incubated on ice for 30 minutes. The plate was centrifuged and the cell pellets were washed in 200 μL 3% BSA in PBS. Each cell pellet was resuspended in 100 μL of R-phycoerythrin (PE)-conjugated goat anti-human IgG Fc fragment (Jackson ImmunoResearch cat #109-115-098) that had been diluted 1:50 in 3% BSA in PBS. The plate was incubated on ice for 30 minutes. […] The samples were analyzed by flow cytometry using 5 μL 7AAD (B-D Pharmingen cat #51-68981E) per sample as a viability stain.
Endogenous EFNA4 expressing cancer cell lines were analyzed: Breast cell lines BT-483, HCC202 and MX-1, Chronic Lymphocytic Leukemia (CLL) cell line MEC1 and mantle cell lymphoma (MCL) cell line Z138.

mouse EFNA4 = target: T1, mouse EFNA4 (Mus musculus, UniProt O08542); test: Affinity / binding to mouse antigen; settings: separate studies
T1 construct: His
T1 sequence (O08542 26-175): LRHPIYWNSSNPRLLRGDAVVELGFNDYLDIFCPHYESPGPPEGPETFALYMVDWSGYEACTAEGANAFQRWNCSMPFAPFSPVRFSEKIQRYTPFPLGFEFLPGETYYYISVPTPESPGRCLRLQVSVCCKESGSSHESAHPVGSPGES
Protocol: As described in International Publication No. WO2012/118547, binding characteristics of E15, E22 and E47 antibodies of the present invention are shown in Table 7.
(§1) The binding constants of huE22 for human and cynomolgus monkey EFNA4 proteins were determined by surface plasmon resonance (SPR) using BIAcore 2000 (GE Healthcare) using recombinant EFNA4 extracellular domain that was fused to a histidine tag to facilitate purification. The results indicated high affinity of huE22 for both human and cynomolgus monkey EFNA4, see Table 12. The cynomolgus monkey EFNA4 protein sequence is highly homologous to human EFNA4 protein sequence, with 98% identity overall and 98% identity in the extracellular domain. […] The lack of huE22 binding to rat or mouse EFNA4 is likely explained by a non-conserved residue in the rat and mouse EFNA4 sequences within the defined huE22 epitope.

human EFNA4 = target: T2, human EFNA4 (Homo sapiens, UniProt P52798); test: SPR (BIAcore 2000) binding constants, human EFNA4; settings: Human antigen
T2 construct: using recombinant EFNA4 extracellular domain that was fused to a histidine tag to facilitate purification; histidine tag
T2 sequence (P52798 26-170 limits assumed): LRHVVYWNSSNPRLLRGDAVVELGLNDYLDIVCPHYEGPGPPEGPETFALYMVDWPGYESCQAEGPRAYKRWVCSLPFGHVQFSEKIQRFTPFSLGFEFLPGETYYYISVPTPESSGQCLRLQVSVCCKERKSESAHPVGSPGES
Protocol: as §1

[1] = test system: Breast-31 (BR31) TNBC PDX; test: In vivo efficacy, BR31 TNBC PDX; parameters: species or system NOD/SCID mice (human tumor PDX); settings: for Regression (TTP, Days): BR31 PDX
[2] = In vitro stability in mouse plasma (ELISA total ADC / total antibody); format: in vitro ADME; settings: 37° C.; for % total huE22 Ab remaining: Mouse plasma, mean; for % huE22-AcBut-CM remaining: mouse plasma, mean (n=3), total ADC by ELISA
Protocol: Quantitation of the total ADC and total antibody, in plasma samples from pharmacokinetic studies in mice dosed with the ADC was determined using an enzyme-linked immunosorbent assay (ELISA) method. ELISA and liquid chromatography tandem mass spectrometry (LC-MS/MS) methods were also used to quantitate total ADC, total antibody and unconjugated payload from the exploratory toxicology studies in rat and monkey and in the in vitro plasma stability study with the ADC.
Total antibody concentrations could not be determined for the total ADC incubations in human plasma due to ELISA limitations of detection for a human IgG, in human plasma containing human IgG. […] NC=Not calculated; SD=Standard deviation.

B1: huE22 (antibody)
heavy: QVQLVQSGAEVKKPGASVKVSCKASGYTFTGYYIHWVRQAPGQGLEWMGWIYPGNFNTKYNERFKGRVTMTTDTSTSTAYMELRSLRSDDTAVYYCAREDGSPYYAMDYWGQGTSVTVSS[human IgG1 constant region omitted here]
VL: DIVMTQTPLSLSVTPGQPASISCRSSQSLVHSNGNTFLYWYLQKPGQSPQLLIYRVSNRFSGVPDRFSGSGSGTDFTLKISRVEAEDVGVYYCFQATHVPWTFGGGTKVEIK
MEC1
  Mean Channel Fluorescent (MCF): 24
Mouse EFNA4
  binding to mouse antigen: no binding to mouse antigen was detected
Human EFNA4
  koff: 3.3E−03 s − 1
  kon: 1.9E+06 M − 1s − 1

B2: huE22-AcBut-CM: huE22 conjugated via lysine residues to AcBut-N-acetyl-γ-calicheamicin dimethyl hydrazide (AcBut-CM) (conjugate)
heavy: QVQLVQSGAEVKKPGASVKVSCKASGYTFTGYYIHWVRQAPGQGLEWMGWIYPGNFNTKYNERFKGRVTMTTDTSTSTAYMELRSLRSDDTAVYYCAREDGSPYYAMDYWGQGTSVTVSS[human IgG1 constant region omitted here]
light: DIVMTQTPLSLSVTPGQPASISCRSSQSLVHSNGNTFLYWYLQKPGQSPQLLIYRVSNRFSGVPDRFSGSGSGTDFTLKISRVEAEDVGVYYCFQATHVPWTFGGGTKVEIKRTVAAPSVFIFPPSDEQLKSGTASVVCLLNNFYPREAKVQWKVDNALQSGNSQESVTEQDSKDSTYSLSSTLTLSKADYEKHKVYACEVTHQGLSSPVTKSFNRGEC
[1]; 0.09 mg/kg
  Regression (TTP, Days): Regression (56) Days
[1]; 0.09 mg/kg, Day 0
  mean tumor volume: 165 ± 6
[1]; 0.09 mg/kg, Day 7
  mean tumor volume: 277 ± 18
[1]; 0.09 mg/kg, Day 14
  mean tumor volume: 201 ± 11
[1]; 0.09 mg/kg, Day 21
  mean tumor volume: 103 ± 12
[1]; 0.09 mg/kg, Day 28
  mean tumor volume: 64 ± 4
[1]; 0.09 mg/kg, Day 44
  mean tumor volume: 57 ± 15
[1]; 0.09 mg/kg, Day 49
  mean tumor volume: 82 ± 19
[1]; 0.09 mg/kg, Day 56
  mean tumor volume: 132 ± 32
[1]; 0.09 mg/kg, Day 63
  mean tumor volume: 206 ± 44
[1]; 0.09 mg/kg, Day 71
  mean tumor volume: 338 ± 73
[1]; 0.09 mg/kg, Day 78
  mean tumor volume: 414 ± 74
[1]; 0.09 mg/kg, Day 85
  mean tumor volume: 589 ± 121
[1]; 0.09 mg/kg, Day 91
  mean tumor volume: 741 ± 157
[1]; 0.09 mg/kg, Day 98
  mean tumor volume: 1178 ± 271
[1]; 0.27 mg/kg
  Regression (TTP, Days): Regression (91) Days
[1]; 0.27 mg/kg, Day 0
  mean tumor volume: 149 ± 13
[1]; 0.27 mg/kg, Day 7
  mean tumor volume: 137 ± 11
[1]; 0.27 mg/kg, Day 14
  mean tumor volume: 59 ± 8
[1]; 0.27 mg/kg, Day 21
  mean tumor volume: 30 ± 9
[1]; 0.27 mg/kg, Day 28
  mean tumor volume: 11 ± 7
[1]; 0.27 mg/kg, Day 36
  mean tumor volume: 17 ± 9
[1]; 0.27 mg/kg, Day 44
  mean tumor volume: 0 ± 0
[1]; 0.27 mg/kg, Day 49
  mean tumor volume: 0 ± 0
[1]; 0.27 mg/kg, Day 56
  mean tumor volume: 0 ± 0
[1]; 0.27 mg/kg, Day 63
  mean tumor volume: 0 ± 0
[1]; 0.27 mg/kg, Day 71
  mean tumor volume: 0 ± 0
[1]; 0.27 mg/kg, Day 78
  mean tumor volume: 0 ± 0
[1]; 0.27 mg/kg, Day 85
  mean tumor volume: 12 ± 8
[1]; 0.27 mg/kg, Day 91
  mean tumor volume: 20 ± 13
[1]; 0.27 mg/kg, Day 98
  mean tumor volume: 26 ± 17
[1]; 0.27 mg/kg, Day 105
  mean tumor volume: 32 ± 21
[1]; 0.27 mg/kg, Day 112
  mean tumor volume: 29 ± 20
[1]; 0.27 mg/kg, Day 119
  mean tumor volume: 58 ± 39
[1]; 0.27 mg/kg, Day 126
  mean tumor volume: 88 ± 58
[1]; 0.27 mg/kg, Day 133
  mean tumor volume: 159 ± 103
[1]; 0.27 mg/kg, Day 141
  mean tumor volume: 181 ± 118
[1]; 0.27 mg/kg, Day 147
  mean tumor volume: 219 ± 142
[1]; 0.27 mg/kg, Day 154
  mean tumor volume: 279 ± 176
[1]; 0.27 mg/kg, Day 161
  mean tumor volume: 293 ± 172
[1]; 0.27 mg/kg, Day 168
  mean tumor volume: 293 ± 172
[1]; 0.27 mg/kg, Day 175
  mean tumor volume: 306 ± 170
[1]; 0.27 mg/kg, Day 182
  mean tumor volume: 308 ± 169
[1]; 0.27 mg/kg, Day 189
  mean tumor volume: 317 ± 168
[1]; 0.27 mg/kg, Day 197
  mean tumor volume: 429 ± 192
[1]; 0.27 mg/kg, Day 204
  mean tumor volume: 445 ± 200
[2]; 1 ug/mL, 0 hours
  % total huE22 Ab remaining: 100%
  % huE22-AcBut-CM remaining: 100%
[2]; 1 ug/mL, 8 hours
  % total huE22 Ab remaining: 105%
[2]; 1 ug/mL, 24 hours
  % total huE22 Ab remaining: 126%
[2]; 1 ug/mL, 48 hours
  % total huE22 Ab remaining: 109%
[2]; 1 ug/mL, 72 hours
  % total huE22 Ab remaining: 101%
[2]; 1 ug/mL, 168 hours
  % total huE22 Ab remaining: 102%
[2]; 50 ug/mL, 0 hours
  % total huE22 Ab remaining: 100%
  % huE22-AcBut-CM remaining: 100%
[2]; 50 ug/mL, 8 hours
  % total huE22 Ab remaining: 111%
[2]; 50 ug/mL, 24 hours
  % total huE22 Ab remaining: 117%
[2]; 50 ug/mL, 48 hours
  % total huE22 Ab remaining: 97.1%
[2]; 50 ug/mL, 72 hours
  % total huE22 Ab remaining: 96.7%
[2]; 50 ug/mL, 168 hours
  % total huE22 Ab remaining: 89.9%
